PubChem BioAssay AID1460 (National Center for Advancing Translational Sciences (NCATS), 2008)
The whole screen tested about 270,000 compounds, of which about 5,800 (2.1%) were called active. The shares of active, inactive and inconclusive entries below differ from those in the screen. The call rests on the fitted dose curve; in most records, active means well fitted inhibition curve with a large enough effect; inconclusive means small, poorly fitted or top-dose-only effect; inactive means flat fitted curve, though single readings scatter. A potency beside an inconclusive call is a rough fit, not a confirmed value.

target: Microtubule-associated protein tau (Homo sapiens) (UniProt P10636); assay: qHTS for Inhibitors of Tau Fibril Formation, Thioflavin T Binding; details: recombinant tau K18 P301L (four-repeat tau fragment), heparin-induced fibrillization, ThT fluorescence; series mostly up to 57.4 µM; activity, negative = inhibition: at the top concentration; further: nearly all actives have a fitted effect of over 55% in size
UniProt P10636, sequence (P10636 whole entry, looked up, the tested form may be a part): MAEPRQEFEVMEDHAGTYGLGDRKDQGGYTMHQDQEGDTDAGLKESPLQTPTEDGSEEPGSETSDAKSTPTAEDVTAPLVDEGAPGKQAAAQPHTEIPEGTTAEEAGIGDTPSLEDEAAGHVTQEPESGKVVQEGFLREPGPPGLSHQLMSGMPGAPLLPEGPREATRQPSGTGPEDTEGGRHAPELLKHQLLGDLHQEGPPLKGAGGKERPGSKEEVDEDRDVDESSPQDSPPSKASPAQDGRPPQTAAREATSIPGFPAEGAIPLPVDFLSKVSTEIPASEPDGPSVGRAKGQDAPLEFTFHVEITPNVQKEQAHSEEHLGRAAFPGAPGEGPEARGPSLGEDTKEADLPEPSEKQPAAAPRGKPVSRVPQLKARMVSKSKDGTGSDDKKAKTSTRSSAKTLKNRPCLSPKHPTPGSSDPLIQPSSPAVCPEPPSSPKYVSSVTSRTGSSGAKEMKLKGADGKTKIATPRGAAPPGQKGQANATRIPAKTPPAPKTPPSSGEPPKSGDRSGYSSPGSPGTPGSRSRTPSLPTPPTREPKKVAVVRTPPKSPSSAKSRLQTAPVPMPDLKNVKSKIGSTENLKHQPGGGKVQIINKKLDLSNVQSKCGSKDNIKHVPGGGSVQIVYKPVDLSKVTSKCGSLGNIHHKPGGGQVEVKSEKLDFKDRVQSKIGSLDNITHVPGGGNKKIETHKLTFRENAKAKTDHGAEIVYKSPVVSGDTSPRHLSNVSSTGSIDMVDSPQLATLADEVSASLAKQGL
Summary of the method: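 Recombinant human tau K18 fragment […] carrying P301L, 15 uM unlabeled plus 0.24 uM Alexa 594-labeled, was fibrillized with 20 uM heparin in 100 mM sodium acetate pH 7 for 6 hr at 37 C; 30 uM ThT fluorescence read after 1 hr.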
On the % scale 0 is the no-effect control and ±100 the full control effect; potency means the concentration at half of the fitted maximal effect; tags describe the fitted curve by direction and shape.

| SMILES | activity, negative = inhibition | Potency |
| --- | --- | --- |
| CCN(CC)S(=O)(=O)c1ccc2c(c1)N(CC(=O)NCCCN1CCN(c3ccc(OC)cc3)CC1)C(=O)CO2 | inactive: -12.5% |  |
| COc1ccc(C2=NS(=O)(=O)N(C)C(C(=O)NC(C)c3ccccc3)=C2)cc1 (stereo not given) |  | inconclusive: 3.16 µM [inhibitor, full curve] |
| COc1ccc(N=c2oc3c(OC)cccc3cc2C(=O)NCc2ccco2)c(OC)c1 |  | inconclusive: 3.55 µM [inhibitor, single point] |
| COc1ccc(-c2nc3sc(CCNC(=O)Cc4ccccc4)c(C)n3n2)cc1 | inactive: -6.6% |  |
| Cc1ccc(NC(=O)CCC(=O)N2Cc3ccccc3Oc3ncccc32)cc1Cl | inactive: 1.83% |  |
| CCOC(=O)c1cnc2ccc(OC)cc2c1Nc1ccc(OCc2ccccc2Cl)cc1 |  | inconclusive: 25.1 µM [inhibitor, partial curve, poor fit] |
| COc1ccc(C(=O)COC(=O)c2ccccc2NS(=O)(=O)c2ccc(O)c([N+](=O)[O-])c2)cc1 |  | active: 15.8 µM |
| COc1ccc(CNC(=O)c2cnc(N3CCCC3)nc2C)c(OC)c1 | inactive: 3.52% |  |
| O=C(CSc1ccc(Cl)cc1Cl)N1CCC(c2nc3ccccc3s2)CC1 |  | inconclusive: 17.8 µM [inhibitor, partial curve] |
| CCOc1cc(C2C(C#N)=C(N)OC(C)=C2C(C)=O)cc(Br)c1O (stereo not given) |  | inconclusive: 10 µM [inhibitor, partial curve] |
| COc1ccccc1NC(=O)C1=C(C)Nc2nc3ccccc3n2C1c1ccccc1Cl (stereo not given) | inactive: -5.45% |  |
| CC1CCc2nc(NC(=O)Cc3cccs3)sc2C1 (stereo not given) | inactive: -7.24% |  |
| NS(=O)(=O)c1ccc(NC(=S)NC2CCCC2)cc1 | inactive: -17.5% |  |
| CC1CCCN(C(=S)SCC(=O)c2cc(Br)cc(Br)c2O)C1 (stereo not given) |  | active: 15.8 µM |
| CC1=CC2=C(OC1N(C)C)c1cccc3cccc(c13)C2=O (stereo not given) |  | active: 20 µM |
| O=C(N/N=C1\C(=O)c2cccc3cccc1c23)c1ccc(O)cc1 |  | inconclusive: 1.26 µM [inhibitor, full curve] |
| COc1ccc2nc(NC(=O)C3CCCN(S(=O)(=O)c4cccc5nonc45)C3)sc2c1 (stereo not given) |  | inconclusive: 8.91 µM [inhibitor, partial curve] |
| Cc1ccc2nc(-c3cccs3)c(Nc3ccc4c(c3)OCCO4)n2c1 |  | inconclusive: 5.01 µM [inhibitor, partial curve, poor fit] |
| COc1ccc(OC)c(-n2c(=S)[nH]c3c(sc(=S)n3-c3ccccc3)c2=O)c1 |  | inconclusive: 15.8 µM [inhibitor, single point] |
| COc1ccc(-c2cc(=O)c3c(OC(C)=O)cc(OC(C)=O)cc3o2)cc1 |  | inconclusive: 22.4 µM [inhibitor, partial curve] |
